# Over roughly 18,000 sequences, “TetR repression strength (sort-seq, GFP reporter)” has its median near 0.23; the highest 2% begin near 0.68. The list shows a part of the results.
# Target: TetR (class B, Tn10) (UniProt P04483)
# Assay: TetR repression strength (sort-seq, GFP reporter) (relative to tetO2 = 1); higher = stronger repression
# Settings: E. coli
# Procedure, shortened: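 Repression strength is the top bin index plus one minus the read-weighted mean bin, relative to the unaltered operator's value. A low-copy library in E. coli SIG10-MAX randomized eight operator positions between a constitutive promoter and sfGFP, with TetR expressed constitutively; cells grew 5 h at 37 °C in LB with 50 µg/mL chloramphenicol and 10^6 were FACS-sorted into 13 bins that were each Illumina-sequenced. Three independent transformations were averaged, keeping only members with ≥30 reads in all replicates and CV ≤0.5.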
# Sequence of UniProt P04483 (P04483 whole entry): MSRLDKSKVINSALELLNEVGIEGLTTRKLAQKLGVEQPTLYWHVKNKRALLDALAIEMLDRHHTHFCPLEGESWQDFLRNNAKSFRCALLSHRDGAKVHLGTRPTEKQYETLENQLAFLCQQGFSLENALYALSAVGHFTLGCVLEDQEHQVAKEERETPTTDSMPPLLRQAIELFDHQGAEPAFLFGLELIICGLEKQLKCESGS
row,Sequence,TetR repression strength
1,TCCCCTAGAGTCCAAGAGA,0.213
2,TCCCCGCAAGTTGTTGAGA,0.198
3,TCCCTACTAGTCTGGGAGA,0.175
4,TCCCTCAGAGTATAAGAGA,0.292
5,TCCCACGTAGTTGGCGAGA,0.242
6,TCCCGGGAAGTCGCTGAGA,0.261
7,TCCCATTGAGTATGGGAGA,0.0159
8,TCCCTGACAGTCAGTGAGA,0.176
9,TCCCTAGTAGTGGGGGAGA,0.206
10,TCCCCGCAAGTTGATGAGA,0.85
11,TCCCGGCTAGTAATAGAGA,0.674
12,TCCCGGGGAGTGTAGGAGA,0.485
13,TCCCCCATAGTACAAGAGA,0.4
14,TCCCTGGCAGTTGAGGAGA,0.14
15,TCCCAATGAGTTATAGAGA,0.607
16,TCCCTATCAGTGCGGGAGA,0.41
17,TCCCACTAAGTCGAGGAGA,0.201
18,TCCCTATCAGTGGGTGAGA,0.554
19,TCCCAAGTAGTGGATGAGA,0.229
20,TCCCATTCAGTAAAGGAGA,0.272
21,TCCCTTGAAGTTTGAGAGA,0.128
22,TCCCGTATAGTTGGGGAGA,0.156
23,TCCCCGTGAGTCTGTGAGA,0.631
24,TCCCGGGGAGTCGGTGAGA,0.245
25,TCCCGGGAAGTCAAAGAGA,0.19
26,TCCCGTTGAGTAGGGGAGA,0.0793

row,Sequence,TetR repression strength
1,TCCCATGTAGTTAGTGAGA,0.24
2,TCCCTTCTAGTAAGAGAGA,0.223
3,TCCCACTCAGTCAAAGAGA,0.367
4,TCCCAAAAAGTGTGAGAGA,0.197
5,TCCCATTGAGTATGAGAGA,0.184
6,TCCCTAGTAGTCAGTGAGA,0.435
7,TCCCGAGGAGTACGGGAGA,0.219
8,TCCCACAGAGTCTGTGAGA,0.0546
9,TCCCAGCGAGTAGGTGAGA,0.145
10,TCCCTGGTAGTGAGTGAGA,0.057
11,TCCCGGGAAGTCGGAGAGA,0.202
12,TCCCAGTAAGTCCGAGAGA,0.263
13,TCCCGCCGAGTTGAGGAGA,0.429
14,TCCCGCGGAGTGATAGAGA,0.597
15,TCCCTGGAAGTCAGTGAGA,0.326
16,TCCCAAACAGTTGTAGAGA,0.242
17,TCCCAGCTAGTCGACGAGA,0.126
18,TCCCGAACAGTTTTGGAGA,0.291
19,TCCCTACTAGTAGCTGAGA,0.307
20,TCCCGGTTAGTGTCGGAGA,0.298
21,TCCCAACGAGTGAGCGAGA,0.301
22,TCCCGGGGAGTGGTCGAGA,0.207
23,TCCCTGTTAGTAGGCGAGA,0.421
24,TCCCCACTAGTGTTTGAGA,0.549
25,TCCCGTTCAGTAGATGAGA,0.246
26,TCCCGAAGAGTATGGGAGA,0.145

row,Sequence,TetR repression strength
1,TCCCTGGAAGTCTAGGAGA,0.023
2,TCCCTTGTAGTTTAGGAGA,0.503
3,TCCCATTGAGTGCACGAGA,0.443
4,TCCCTAATAGTACAGGAGA,0.32
5,TCCCGATAAGTGTAGGAGA,0.238
6,TCCCGTGGAGTAACCGAGA,0.188
7,TCCCTGAAAGTTAGGGAGA,0.308
8,TCCCCGCGAGTTTCTGAGA,0.357
9,TCCCATTTAGTAGCTGAGA,0.0133
10,TCCCGGGCAGTACAAGAGA,1.05
11,TCCCTTCGAGTGGTCGAGA,0.352
12,TCCCTTGGAGTCAAGGAGA,0.283
13,TCCCGTGGAGTATAGGAGA,0.127
14,TCCCGGCGAGTCTATGAGA,0.448
15,TCCCCGAAAGTCAGTGAGA,0.209
16,TCCCATTAAGTTCTGGAGA,0.285
17,TCCCGTGCAGTTGCAGAGA,0.376
18,TCCCTCGGAGTGTTGGAGA,0.349
19,TCCCTAGAAGTGGTTGAGA,0.243
20,TCCCAGGGAGTAACAGAGA,0.261
21,TCCCGGCGAGTGTGCGAGA,0.153
22,TCCCGTCAAGTCAAAGAGA,0.27
23,TCCCGGCAAGTTAGGGAGA,0.134
24,TCCCGGCAAGTAGTTGAGA,0.144
25,TCCCCTGCAGTCGGGGAGA,0.169
26,TCCCAATTAGTTTGCGAGA,0.236

row,Sequence,TetR repression strength
1,TCCCAGGGAGTTCCAGAGA,0.216
2,TCCCAGTAAGTCTCGGAGA,0.206
3,TCCCATTTAGTATAAGAGA,0.275
4,TCCCCAGCAGTGCACGAGA,0.175
5,TCCCTGTGAGTTCTGGAGA,0.225
6,TCCCCGCTAGTCTCAGAGA,0.319
7,TCCCGGCGAGTGTAAGAGA,0.654
8,TCCCGATCAGTCAAGGAGA,0.375
9,TCCCCATCAGTGATAGAGA,0.966
10,TCCCGCGAAGTCGGGGAGA,0.448
11,TCCCTATGAGTGGGTGAGA,0.136
12,TCCCATTTAGTCGACGAGA,0.538
13,TCCCGGATAGTTCTAGAGA,0.278
14,TCCCATCGAGTGCGAGAGA,0.0889
15,TCCCAAGGAGTCTTAGAGA,0.475
16,TCCCTCTGAGTAGTAGAGA,0.144
17,TCCCGAAAAGTGCGAGAGA,0.242
18,TCCCAGCAAGTATGGGAGA,0.71
19,TCCCATCTAGTCTGGGAGA,0.254
20,TCCCTTAGAGTCAATGAGA,0.269
21,TCCCCAACAGTTCGGGAGA,0.0137
22,TCCCTTTGAGTTATGGAGA,0.325
23,TCCCAGCCAGTTAGGGAGA,0.204
24,TCCCTGCCAGTAGTAGAGA,0.27
25,TCCCCACGAGTGCTCGAGA,0.156
26,TCCCCGGCAGTGGGTGAGA,0.0895

row,Sequence,TetR repression strength
1,TCCCTCCTAGTATGAGAGA,0.28
2,TCCCTTTCAGTTTTGGAGA,0.151
3,TCCCGATGAGTTTGGGAGA,0.199
4,TCCCACTCAGTGCGCGAGA,0.0918
5,TCCCACCTAGTAGGTGAGA,0.222
6,TCCCGAGTAGTTTGAGAGA,0.211
7,TCCCGCTAAGTACCGGAGA,0.158
8,TCCCGATGAGTAGACGAGA,0.0926
9,TCCCGACAAGTGCAGGAGA,0.684
10,TCCCAGCAAGTTCTGGAGA,0.0363
11,TCCCGCCCAGTATTTGAGA,0.311
12,TCCCCGACAGTAGGGGAGA,0.0926
13,TCCCTACCAGTGTGGGAGA,0.327
14,TCCCACGGAGTGCGGGAGA,0.24
15,TCCCTGTCAGTAGGCGAGA,0.38
16,TCCCTTCTAGTTACAGAGA,0.558
17,TCCCAGCAAGTGTGTGAGA,0.1
18,TCCCTTAAAGTACCAGAGA,0.166
19,TCCCTCAGAGTAGGTGAGA,0.0581
20,TCCCATATAGTGTAAGAGA,0.359
21,TCCCAGTGAGTCTTGGAGA,0.214
22,TCCCCGGTAGTCGTTGAGA,0.192
23,TCCCACCAAGTGATCGAGA,0.314
24,TCCCTGGGAGTATAGGAGA,0.273
25,TCCCTAGTAGTGTGAGAGA,0.119
26,TCCCTTCTAGTTTCAGAGA,0.401

row,Sequence,TetR repression strength
1,TCCCAAGAAGTCGGCGAGA,0.0931
2,TCCCGACTAGTCTTGGAGA,0.338
3,TCCCAGACAGTGTGAGAGA,0.418
4,TCCCGCGGAGTGCGGGAGA,0.369
5,TCCCCAAGAGTTATAGAGA,0.281
6,TCCCCCTAAGTCTGTGAGA,0.104
7,TCCCCTCTAGTATTCGAGA,0.39
8,TCCCGGGCAGTACCGGAGA,0.328
9,TCCCAGGCAGTCCGGGAGA,0.0518
10,TCCCGATCAGTTGGAGAGA,0.198
11,TCCCCTGTAGTGAGGGAGA,0.087
12,TCCCTCATAGTCCCTGAGA,0.235
13,TCCCATGCAGTAGGTGAGA,0.194
14,TCCCCTGGAGTACGAGAGA,0.207
15,TCCCTGCGAGTCCACGAGA,0.204
16,TCCCAAGTAGTGATTGAGA,0.36
17,TCCCGTGAAGTGGTAGAGA,0.348
18,TCCCTCTTAGTTAACGAGA,0.322
19,TCCCGTCTAGTGACCGAGA,0.0797
20,TCCCCTTCAGTAGTAGAGA,0.25
21,TCCCCACAAGTGTTGGAGA,0.173
22,TCCCTATCAGTTACGGAGA,0.484
23,TCCCGGCTAGTTCTGGAGA,0.207
24,TCCCGTAAAGTTCATGAGA,1.21
25,TCCCTGCCAGTTCCTGAGA,0.201
26,TCCCGGACAGTGAGAGAGA,0.246

row,Sequence,TetR repression strength
1,TCCCGAGAAGTATACGAGA,0.145
2,TCCCGGTTAGTATGCGAGA,0.19
3,TCCCGTCCAGTTGTGGAGA,0.514
4,TCCCGGACAGTAGACGAGA,0.25
5,TCCCCGGCAGTGAAAGAGA,0.324
6,TCCCGAAGAGTTTAAGAGA,0.292
7,TCCCAATCAGTGGATGAGA,0.284
8,TCCCCACAAGTGATGGAGA,0.152
9,TCCCTTAGAGTGTCGGAGA,0.182
10,TCCCTATCAGTGCCGGAGA,1.06
11,TCCCCTTTAGTGGTTGAGA,0.273
12,TCCCAAACAGTTATGGAGA,0.203
13,TCCCTTGGAGTAACAGAGA,0
14,TCCCACTGAGTTCAGGAGA,0.104
15,TCCCGTCGAGTTATAGAGA,0.254
16,TCCCAAGTAGTTAAGGAGA,0.0695
17,TCCCGCGCAGTACGGGAGA,0.17
18,TCCCCACGAGTAAGAGAGA,0.215
19,TCCCCAAAAGTTTGTGAGA,0.0341
20,TCCCATTGAGTTGACGAGA,0.0759
21,TCCCAAGAAGTCCTGGAGA,0.226
22,TCCCGGATAGTTGCCGAGA,0
23,TCCCCAAGAGTGATAGAGA,0.456
24,TCCCGACTAGTGCTCGAGA,0.0234
25,TCCCTCAGAGTATTTGAGA,0.462
26,TCCCTGGCAGTGATGGAGA,0.189

row,Sequence,TetR repression strength
1,TCCCAATCAGTTACGGAGA,0.404
2,TCCCTTTTAGTAAGGGAGA,0.112
3,TCCCGTAGAGTCCGTGAGA,0.202
4,TCCCGTGGAGTCCGGGAGA,0.158
5,TCCCTTGAAGTGAGGGAGA,0.118
6,TCCCGTATAGTTGAAGAGA,0.0792
7,TCCCCGTAAGTTATGGAGA,0.259
8,TCCCTCCCAGTCGCGGAGA,0.291
9,TCCCTAAAAGTTCTCGAGA,0.375
10,TCCCATCAAGTCCTTGAGA,0.325
11,TCCCAATGAGTGGGGGAGA,0.227
12,TCCCTTGGAGTCTTGGAGA,0.265
13,TCCCCGAGAGTGCGTGAGA,0.415
14,TCCCGCCTAGTCAGGGAGA,0.0997
15,TCCCTGTTAGTTCTTGAGA,0.212
16,TCCCAGATAGTTTCAGAGA,0.307
17,TCCCGCTAAGTGACGGAGA,0.257
18,TCCCGTCGAGTAGCTGAGA,0.186
19,TCCCCGTCAGTGCGAGAGA,0.69
20,TCCCTAGTAGTTATGGAGA,0.136
21,TCCCAGTGAGTCGGTGAGA,0.0633
22,TCCCTACAAGTCAGGGAGA,0.295
